# Measurements as given in ChEMBL document CHEMBL5308541, “MAIP: An Open-Source Tool to Enrich High-Throughput Screening Output and Identify Novel, Druglike Molecules with Antimalarial Activity” (ACS Med Chem Lett, 2023).
# The whole screen tested about 150,000 compounds, of which about 540 (0.36%) showed an effect of 50% or more. The list shows a part of the results.
# Test system: Plasmodium falciparum
# Assay: Primary screen in NF54 nanoGlo assay, in single point, at 2uM, 72h; a lower Z score goes with more inhibition
# Type: functional, Erythrocyte
# Details: timepoint 72 hour
SMILES,% Inhibition [%],Z score
O=C1C[C@H](CNc2ccc(-c3nc(C4CC4)no3)cn2)CN1C1CCCC1,-15,2.58
COc1ccc(CNCCNc2ccc3ccccc3n2)cc1OC,-6,1.3
CN1CCN(c2ccc(F)cc2NCc2cc(F)ccc2F)CC1,-11,2.25
COc1cccc(C(=O)N2CC[C@@](O)(c3ccccc3)C2)c1OCCCN,-6,1.11
CN(CC1CCN(CCc2ccc(Cl)cc2)CC1)C(=O)Cc1n[nH]c2ccccc12,-1,0.17
Cc1ccc(-c2cc(C(=O)N3CCCC[C@@H]3CCN3CCOCC3)[nH]n2)cc1,-11,2.32
O=C([C@H]1CC12CCNCC2)N1CCC(N2CCN(CCO)CC2)CC1,-2,0.37
CC1CCC(NC(=O)c2c(C(F)(F)F)nn(C)c2C(F)(F)F)CC1 (stereo unspecified),-10,1.66
CC(C)(C)n1nnc(CNc2ccc3[nH]c(-c4ccccn4)nc3c2)n1,-4,0.67
Cc1cc(F)ccc1CNc1ccc(N2CCN(C)CC2)nc1,3,-0.45
COCCn1cnnc1CN(C)C(=O)Cn1nc2ccccc2n1,-8,1.28
Cc1cc(NCCCN2CCC(C(=O)O)CC2)nc2ccccc12,-15,2.33
C[C@@H](CNC(=O)c1ccccc1-c1ncc(-c2ccccc2F)o1)CN1CCCCC1,0,-0.04
CC1CN(C(C)(C)CNC(=O)C2CCCN2C2CCN(CC(F)(F)F)CC2)CC(C)O1 (stereo unspecified),-4,0.97
O=C(Nc1ccc2c[nH]nc2c1)[C@H]1CCCN(c2ccc(-n3ccnc3)nn2)C1,2,-0.45
Cc1noc(C)c1S(=O)(=O)N1CCC[C@H](C(=O)N2CC=C(c3c[nH]c4cc(F)ccc34)CC2)C1,-10,1.69
CN1CCC(Oc2ccc(CNc3nccn4cncc34)cc2)CC1,-4,0.66
COCC(C)OCC(O)CN1CCC(c2nccc(N3CCCC3)n2)CC1 (stereo unspecified),1,-0.18
O=C(Nc1cnn(C2CCNCC2)c1)C1(c2cc(F)cc(F)c2)CCCC1,-4,0.68
Cc1cc(C(=O)N2CC(CO)CC(CN3CCCN(C)CC3)C2)n[nH]1 (stereo unspecified),-5,0.91
N#CCc1ccc(Oc2ccc(NC(=O)c3ccccc3-c3ccc(Cn4cccn4)cc3)cn2)cc1,-2,0.24
Cc1cc(C(=O)N[C@@H]2CN(C)C[C@H]2c2cncn2C)cc(NC2CC2)n1,6,-1.12
C#CCN1CCN(C(=O)CN2CCN(CC(=O)N3CCN(CC#C)CC3)[C@@H](C)C2)CC1,-6,1.2
CN1CCC(CNc2ncnc3cc[nH]c23)(c2ccccc2)CC1,0,0.02
CNc1ncc(C(=O)N[C@H](CO)Cc2c[nH]c3ccccc23)cn1,-1,0.29
Cc1nc2c(c(=O)[nH]1)CN(C(=O)COC[C@H]1CCCO1)C2,-5,1.12
c1ccc2oc([C@H]3CCCN(c4ncnc5[nH]ccc45)C3)nc2c1,-16,3.54

SMILES,% Inhibition [%],Z score
Cn1cccc1-c1cc(C(=O)N2CCC(c3cc(-c4ccccc4Cl)n[nH]3)CC2)n[nH]1,-6,1.39
CC(C)(C)CC(C)(C)NS(=O)(=O)c1ccc(Cl)cc1Cl,2,-0.36
Cc1cc(N2CCN(CC(=O)N3CCNCC3)C[C@H](O)C2)nc(N)n1,-7,1.35
CC1(C)CC(NC2COCC2N2CCCC2)CC(C)(C)N1 (stereo unspecified),-4,0.63
c1cc(-c2cnn([C@@H]3CCCCO3)c2)c2cc[nH]c2n1,0,-0.05
OC[C@H]1CCCCN1CCNCc1cccc2[nH]ccc12,-9,1.83
Cc1ccc2c(c1)OC(C)(C)C[C@@H]2Nc1nccc(N2CCC(O)CC2)n1,9,-1.37
CCOCCOc1cc(C)ccc1CN1C(=O)NC(C(C)CC)C1=O (stereo unspecified),2,-0.29
OCC1CCN(CC2CN(Cc3cccc(-c4ccco4)c3)CC2CO)CC1 (stereo unspecified),2,-0.43
C[C@@H](CC(=O)Nc1cccc(CN2CCC(CO)CC2)c1)N1CCCCC1=O,-10,2.09
COc1ccccc1N1CCC(NC(c2cccs2)[C@H]2C[C@@H](O)C2)CC1 (stereo partly specified),4,-0.78
CCn1ncc(CNS(=O)(=O)N2CCCC2)c1C,-9,1.99
Cn1ccnc1NC(=O)c1cccc(CN2CCN(C3CCOCC3)CC2)c1,3,-0.57
O=C(CNC1CCN(Cc2ccccc2)CC1CO)Nc1ccc(N2CCCC2)cc1 (stereo unspecified),-8,1.3
OCCN1CCC(Nc2nccc3ccccc23)CC1,3,-0.53
c1ccc2nc(-c3cnc4ccccc4c3-c3c[nH]c4ccccc34)ccc2c1,-11,1.82
CCOc1cccc2cc([C@H](C)NC(=O)NCc3c(C)nn(CC)c3C)oc12,-5,0.82
CN1C(=O)CC[C@@H]1C(=O)N(Cc1cscn1)c1ccccc1,2,-0.28
Cn1nccc1-n1nc(-c2c[nH]c3ccccc23)nc1CN1CCCCCC1,0,0.05
c1ccc2c(N3CCN(Cc4cc5n(n4)CCCNC5)CC3)nsc2c1,-9,1.94
COc1cc(NCC[C@H]2CCCN2C)ncn1,-2,0.26
FC(F)(F)C1CCCC(NC2CCN(CC3CCOC3)CC2)C1 (stereo unspecified),-5,1.15
Fc1cccnc1N1CCC(NC2CCN(Cc3ccccc3)C2)C1 (stereo unspecified),-10,1.84
CC(C)(C)OC(=O)[C@@H]1CCCN1C(=O)Nc1ccc(-n2cnc3ccccc32)nc1,-15,2.7
COCc1nc(C)cc(N(CCC#N)CC2CCC2)n1,-3,0.49
CC[C@@](C)(CNC(=O)c1ccc(-c2cnco2)cc1)NC(=O)c1ccc(-c2cnco2)cc1,-7,1.15
